Measured values from ChEMBL document CHEMBL4888484, “Replenishing the malaria drug discovery pipeline: Screening and hit evaluation of the MMV Hit Generation Library 1 (HGL1) against asexual blood stage Plasmodium falciparum ,using a nano luciferase reporter read-out” (2022).
About 540 (0.36%) of roughly 150,000 compounds showed an effect of 50% or more. Some of the results follow.

These molecules were tested on Plasmodium falciparum (assay: Primary screen in NF54 nanoGlo assay, in single point, at 2uM, 72h; a lower Z score goes with more inhibition). Settings: timepoint 72 hour.
Type: functional, Erythrocyte
`CC(=O)c1ccc(-c2ccc3nc(-c4ccc(C)cc4)c(CCC(=O)NC4CC4)n3c2)cc1` was tested, and the “% Inhibition” value was 8% and the Z score was -1.23. For `Cc1ccc(CN2CC(Cc3ccccc3Cl)C2)o1`, the “% Inhibition” value was -14% and the Z score was 1.41. `O=C(Nc1ccc(-n2cnnn2)cc1)N1CC[C@@H]1Cc1ccccc1` was tested, and the “% Inhibition” value was -5% and the Z score was 1.07. For `COc1cccc([C@@H](C)NC(=O)CCc2c(C)nc(O)nc2C)c1`, the “% Inhibition” value was -21% and the Z score was 2.03. For `CC(C)(C)CN(CCCO)C(=O)NCCCn1ccnc1`, the “% Inhibition” value was -12% and the Z score was 1.17. With `Cc1ccc(C(=O)N2[C@H](C(=O)NCc3ccccn3)COC23CCN(C(=O)c2cccs2)CC3)cc1` the “% Inhibition” value was -16% and the Z score was 1.88. In the case of `C[C@H]1OCC[C@H]1NC(=O)c1c[nH]nc1-c1cccnc1`, the “% Inhibition” value is reported as 1% and the Z score is reported as -0.21. `O=S(=O)(CCc1ccccc1)N1CCC(n2nccn2)CC1` was tested, and the “% Inhibition” value was -3% and the Z score was 0.29. In the case of `O=c1sc2ccccc2n1COc1ccc(Cl)cc1`, the “% Inhibition” value is reported as 6% and the Z score is reported as -1.09. With `CC(C)c1ccc(C(=O)N2CCC([C@H]3CCNC3)CC2)cc1` the “% Inhibition” value was 0% and the Z score was -0.02. `CO[C@@H](C(=O)N1CC[S+]([O-])CC1)c1ccccc1` was tested, and the “% Inhibition” value was -12% and the Z score was 2.27. In the case of `Cc1cscc1NC(=O)N[C@@H](C)Cc1cccnc1`, the “% Inhibition” value is reported as 5% and the Z score is reported as -0.5. `CN(Cc1ccc(F)cc1)[C@H]1CCN(CC(F)(F)F)C1=O` was tested, and the “% Inhibition” value was 11% and the Z score was -1.47. `CC[C@H](Oc1ccc(F)cc1)C(=O)N(Cc1cccc(F)c1)c1ccccn1` was tested, and the “% Inhibition” value was 9% and the Z score was -1.52. For `CC(C)(C)NS(=O)(=O)Nc1ccccc1`, the “% Inhibition” value was -7% and the Z score was 0.96. For `CC(CN1CCOCC1)N1CCN(C(C#N)c2ccccc2)CC1` (stereo not drawn), the “% Inhibition” value was -8% and the Z score was 0.73. `CN(CCn1cccn1)CCn1ccc2ccccc21` was tested, and the “% Inhibition” value was -15% and the Z score was 2.15. For `CC(C)Cc1nc(CNC(=O)c2csc(N)n2)no1`, the “% Inhibition” value was -11% and the Z score was 1.8. For `CC(C)C(=O)N1CCc2c(c(-c3nncn3C(C)C)nn2C)C1`, the “% Inhibition” value was -12% and the Z score was 2.21. For `O=C(C1CCC1(F)F)N1CCCCCC(Nc2ccc(C(F)(F)F)nn2)C1` (stereo not drawn), the “% Inhibition” value was 9% and the Z score was -1.08. With `CCC1(CC)CN(C(=O)NCc2ccn(C(C)C)n2)C1` the “% Inhibition” value was 2% and the Z score was -0.4. For `CC(=O)[C@@H]1C[C@H](c2nc(-c3cccc(CN4CCCC4=O)c3)no2)C1(C)C`, the “% Inhibition” value was 6% and the Z score was -0.7. In the case of `CC1(O)CN(C(=O)Nc2ccccn2)C1`, the “% Inhibition” value is reported as 2% and the Z score is reported as -0.27. For `Cc1cc(C(=O)N[C@@H]2CN(c3ncccn3)C[C@H]2CO)c(C)o1`, the “% Inhibition” value was 1% and the Z score was -0.13. With `Cc1[nH]cnc1CNC(=O)[C@H]1CC12CCCCC2` the “% Inhibition” value was -6% and the Z score was 1.24. For `CN(CCc1nc(-c2ccccc2)no1)Cc1ccccc1Cl`, the “% Inhibition” value was 3% and the Z score was -0.42. `O=C(Nc1cccnc1)N1CCN(Cc2ccc3c(c2)OCO3)CC1` was tested, and the “% Inhibition” value was -12% and the Z score was 1.89. `Cc1cc(CCNC(=O)c2ccc(Cl)s2)on1` was tested, and the “% Inhibition” value was -13% and the Z score was 2.07. With `O=C(c1ccc2ncsc2c1)N1CCC[C@H]1c1nc2ccccc2s1` the “% Inhibition” value was 19% and the Z score was -2.16. For `CCONC(=O)C(=O)Nc1c(F)c(F)c(F)c(F)c1F`, the “% Inhibition” value was -10% and the Z score was 1.22. For `Cc1c(F)cccc1NC(=O)N(C)CC1CCOCC1`, the “% Inhibition” value was -3% and the Z score was 0.51. For `C#CCCC1(CCC(=O)N2CCCC[C@@H]2COC)N=N1`, the “% Inhibition” value was -11% and the Z score was 1.33. `Cc1c(C(=O)NCc2nc(C(N)=O)no2)ccn1C` was tested, and the “% Inhibition” value was 6% and the Z score was -1.1. In the case of `Cc1cc(C(=O)Nc2ccc(N3CCCC3=O)cn2)nn1-c1ccc(F)cc1`, the “% Inhibition” value is reported as -3% and the Z score is reported as 0.37. For `COc1ccccc1[C@H](C)NC(=O)c1cccn1C1CCNCC1`, the “% Inhibition” value was -4% and the Z score was 0.62. With `CN(C)C[C@H]1O[C@@H](CO)[C@@H](O)[C@@H]1N(C)Cc1ccccc1` the “% Inhibition” value was -14% and the Z score was 1.75. With `CCCOc1ccc2c(c1)OCC(C(=O)N1CCN(CCOC(C)C)CC1)=C2` the “% Inhibition” value was -4% and the Z score was 0.59. In the case of `CCC(C)C(=O)NCCc1ccnc(NC(=O)C(C)CC)c1` (stereo not drawn), the “% Inhibition” value is reported as 7% and the Z score is reported as -1.3. With `COCCn1ccnc1-c1nc2cc(C(C)(C)C)ccc2[nH]1` the “% Inhibition” value was -14% and the Z score was 1.88. For `Cc1cc(N2C(=O)CCS2(=O)=O)ccc1S(=O)(=O)NC1CCCC1`, the “% Inhibition” value was 33% and the Z score was -1.32. With `CCC1CN(c2nnnn2C2CC(C)OC(C)C2)CC(CC)O1` (stereo not drawn) the “% Inhibition” value was 1% and the Z score was -0.15. In the case of `CCc1nccn1C(C)CC(=O)N1CCNC(Cc2ccccc2)C1` (stereo not drawn), the “% Inhibition” value is reported as -11% and the Z score is reported as 1.17. With `O=C(Cc1cccs1)NCc1cnn2c1CCCC2` the “% Inhibition” value was 8% and the Z score was -1.23. `COCc1cccc(C(=O)N2CCCCC[C@H]2c2noc(-c3cnn(C)c3)n2)c1` was tested, and the “% Inhibition” value was -4% and the Z score was 0.5.
